According to PubChem BioAssay AID1347120 (National Center for Advancing Translational Sciences (NCATS), 2019):
Among all 390,000 compounds or so, about 930 (0.24%) were called active. Inconclusive results, whose numbers are uncertain, are shown with a selection of clear calls. Calls follow the shape of the dose curve; as a rule, active = well fitted activation curve with a large enough effect; inconclusive = small, poorly fitted or top-dose-only effect; inactive = no such curve, though single readings can be large or run the other way. Potencies of inconclusive entries are doubtful fits and often do not repeat.
Potency is read from the fitted curve at half-maximal effect; tags tell the direction and shape of the fitted curve.

Assay: qHTS for Suppressors of FUS Proteinopathy: Primary screen using FUS-linked yeast assay; also: nearly all actives have a fitted effect of over 55% in size;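 as to growth rescue (activation): plate controls were DMSO vehicle for no effect and reference control for full effect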
Conditions: S. cerevisiae FUS-expressing, OD600, 24 h; Potency: growth rescue; growth rescue (activation): at 76.6 µM (top of the series)
How it was run: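 Absorbance at 600 nm, taken 24hr after compound addition, measured rescue of FUS-yeast growth at 30C. Induction used 2% galactose with seeding at OD 0.005. Controls: CP55940 from 92uM final, DMSO only.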
For Cc1ccc(Nc2cnn(C34CC5CC(CC(CC(=O)O)(C5)C3)C4)c(=O)c2Cl)cc1C, the Potency was inconclusive: 31.6 µM [activator, single point].
With CCn1ncc(C2=NOC(C(=O)Nc3cnn(C45CC6CC(CC(C6)C4)C5)c3)C2)c1C (stereo not drawn) the Potency was inconclusive: 28.2 µM [activator, partial curve, poor fit].
In the case of O=S(=O)(NCc1ccc2c(c1)OCO2)c1ccc(Cl)s1, the “growth rescue (activation)” value is reported as inactive: 3.68%.
With O=C(NCc1ccncc1)C1CCN(S(=O)(=O)c2cccc(C(F)(F)F)c2)CC1 the “growth rescue (activation)” value was inactive: -14.4%.
In the case of CCn1cc(C(=O)N2CCN(c3ccc(F)cc3)CC2)c(=O)c2cc(S(=O)(=O)N3CCOCC3)ccc21, the “growth rescue (activation)” value is reported as inactive: 25.9%.
With COc1ccccc1N1C(=O)c2ccc(C(=O)Nc3ccc(C(=O)O)cc3)cc2C1=O the “growth rescue (activation)” value was inactive: 5.95%.
In the case of CCc1nc2ccc(C(=O)NCc3ccccc3OC)cn2c1N(C=O)CCC(C)C, the Potency is reported as inconclusive: 20 µM [activator, partial curve, poor fit].
For C[C@]12CC[C@H]3C(=CCc4cc(O)ccc43)[C@@H]1CCC2=O, the “growth rescue (activation)” value was inactive: -21.9%.
In the case of CCOC(=O)Cn1c(CN(Cc2ccccc2)Cc2ccccc2)nc2c1c(=O)n(C)c(=O)n2C, the Potency is reported as inconclusive: 31.6 µM [activator, single point].
With CCOC(=O)c1ccccc1NC(=O)CN1C(=O)CC(c2ccco2)Sc2ccccc21 (stereo not drawn) the Potency was inconclusive: 12.6 µM [activator, partial curve].
For N#Cc1sc2nc(-c3cccs3)cc(-c3ccc(Cl)cc3)c2c1N, the Potency was inconclusive: 50.1 µM [activator, single point].
With Cc1ccc(S(=O)(=O)N2C[C@H]3C(=O)C[C@@H](c4ccccc4)N(S(C)(=O)=O)[C@H]3C[C@H]2c2ccccc2)cc1 the Potency was inconclusive: 28.2 µM [activator, single point].
For COc1ccc(CCNC(=O)CSc2nc(N)c(C#N)c(-c3cccs3)c2C#N)cc1OC, the Potency was inconclusive: 39.8 µM [activator, partial curve, poor fit].
In the case of COC(=O)[C@]12C[C@H](CC(=O)NCCC(C)C)C(=O)N(Cc3cccc4ccccc34)C1=C[C@H](C(C)(C)C)O[C@@H]2C, the Potency is reported as active: 22.4 µM.
For COCCNC(=O)c1ccc(-n2c(-c3ccccc3)cc3c2CCCCC3)cc1, the “growth rescue (activation)” value was inactive: 9.77%.
With CCCCS(=O)(=O)N1C2=NC(C(=O)OC)=C(C(=O)OC)[C@@H]3N(C)c4ccc(OC)cc4[C@]23C[C@H]1C(=O)OC the Potency was inconclusive: 50.1 µM [activator, single point].
For COc1cc(/C=C2\CCC/C(=C\c3ccc(O)c(OC)c3)C2=O)ccc1O, the Potency was inconclusive: 44.7 µM [activator, single point].
With O=C(CSCC(=O)N1CCCCC1)Nc1nc(-c2ccccc2)c(-c2ccccc2)s1 the Potency was active: 17.8 µM.
For CCCCOc1ccc(C(=O)N/C(=C/C=C/c2ccccc2)C(=O)NCCCO)cc1, the Potency was inconclusive: 31.6 µM [activator, single point].
With ONC(=Nc1ccccc1)c1ccc(Cl)cc1 the “growth rescue (activation)” value was inactive: 11.9%.
With COc1ccc(C(=O)OCc2c(F)cccc2Cl)cc1S(=O)(=O)N1CCOCC1 the Potency was inconclusive: 35.5 µM [activator, single point].
In the case of COc1cc(C2CC(=O)Oc3ccc(C(C)(C)C)cc32)cc(OC)c1OC (stereo not drawn), the Potency is reported as inconclusive: 50.1 µM [activator, single point].
In the case of CN1C(=O)c2ccccc2Sc2ccc(NC(=O)COc3ccccc3)cc21, the Potency is reported as inconclusive: 28.2 µM [activator, partial curve, poor fit].
For CCCn1nnc(NC(=O)c2ccc(-c3cc(Cl)ccc3Cl)o2)n1, the “growth rescue (activation)” value was inactive: -18.5%.
For O=C(NCc1ccco1)C12CN(Cc3ccccc3)CC1C(c1ccc([N+](=O)[O-])cc1)=NO2 (stereo not drawn), the Potency was inconclusive: 31.6 µM [activator, single point].
In the case of O=c1[nH][nH]c2c1C(c1ccc(F)cc1)OC(CCc1ccccc1)C2 (stereo not drawn), the “growth rescue (activation)” value is reported as inactive: 39.7%.
In the case of Cc1nc(CN2C(=O)C3(CCC3)ON=C2c2cccc(Cl)c2)cs1, the “growth rescue (activation)” value is reported as inactive: -13.8%.
With Cc1cc2ccccn2c1C(=O)c1ccc(S(=O)(=O)N(C)C)cc1 the “growth rescue (activation)” value was inactive: -9.01%.
For CCCCCCSc1nc(O)c(C2OC(=O)c3c2ccc(OC)c3OC)c(=O)n1-c1ccccc1 (stereo not drawn), the Potency was inconclusive: 28.2 µM [activator, partial curve, poor fit].
For CCC(C)(C)n1nnnc1C(c1cc2cc(C)ccc2[nH]c1=O)N1CCCC1 (stereo not drawn), the Potency was inconclusive: 35.5 µM [activator, partial curve, poor fit].
In the case of COc1cccc(N2C(=O)N(Cc3ccc(C#N)cc3)c3ccccc3S2(=O)=O)c1, the Potency is reported as inconclusive: 17.8 µM [activator, partial curve, poor fit].
With Cc1ccc(-c2nnc(-c3cccnc3)o2)cc1 the “growth rescue (activation)” value was inactive: 16.9%.
In the case of Cc1cc(C(=O)COC(=O)c2ccc(Cl)c(S(N)(=O)=O)c2)c(C)n1C1CC1, the Potency is reported as inconclusive: 31.6 µM [activator, partial curve, poor fit].
In the case of COc1ccc(NC(=O)N(C)C[C@H]2Oc3c(NC(=O)Nc4ccc(C(F)(F)F)cc4)cccc3C(=O)N([C@H](C)CO)C[C@@H]2C)cc1, the Potency is reported as active: 25.1 µM.
With COc1ccccc1NC(=O)COC(=O)C1CCCC1 the “growth rescue (activation)” value was inactive: -16.1%.
In the case of CCOC(=O)[C@]12CCCC=C1N(Cc1ccc3c(c1)OCO3)C(=O)[C@H](CC(=O)NCc1cccs1)C2, the Potency is reported as inconclusive: 11.2 µM [activator, partial curve, poor fit].
With Cc1ccc(N2C(N)=C(C#N)C(c3ccsc3)C3=C2CC(C)(C)CC3=O)cc1 (stereo not drawn) the Potency was inconclusive: 35.5 µM [activator, single point].
In the case of CC(C)NC(=O)N[C@H]1C[C@@H]2O[C@@H](CO)CC[C@@H]2O[C@@H]1CCc1ccc(-c2ccccc2F)cc1, the Potency is reported as inconclusive: 28.2 µM [activator, single point].
In the case of CN(Cc1c(O)ccc2c1oc(=O)c1ccccc12)C1CCCCC1, the “growth rescue (activation)” value is reported as inactive: 33.6%.
In the case of Cc1ccc2oc(=O)c3cnn(CC(=O)N4CCN(c5cc(Cl)ccc5C)CC4)c3c2c1, the “growth rescue (activation)” value is reported as inactive: -12.5%.
For CC(C)Oc1ccc(S(=O)(=O)N2CCOCC2)cc1NC(=O)c1ccc(N2CCCC2=O)cc1, the Potency was inconclusive: 31.6 µM [activator, single point].
With CCn1c(=O)c2cc(C(=O)N(C)c3ccc(OC)cc3OC)sc2c2ccccc21 the Potency was active: 2 µM.
In the case of CC(/C=N/NC(=O)Cc1cc(=O)[nH][nH]1)=C\c1ccccc1, the Potency is reported as inconclusive: 15.8 µM [activator, partial curve, poor fit].
In the case of Cc1cc(C)c(C#N)c(SCC(=O)c2ccc(Cl)cc2Cl)n1, the “growth rescue (activation)” value is reported as inactive: -27.1%.
In the case of COc1ccc(CCNc2ncnc3c2c(-c2ccccc2)cn3-c2ccc(F)cc2)cc1OC, the Potency is reported as inconclusive: 20 µM [activator, partial curve, poor fit].
For CCOc1cc(C2c3c(oc4ccc(F)cc4c3=O)C(=O)N2Cc2ccco2)ccc1O (stereo not drawn), the “growth rescue (activation)” value was inactive: 15.7%.
With C#CCOCCOCCOCCNc1nc(N2CCOCC2)nc(N2CCN(C(=O)CCCCCCCCCCNC(=O)[C@H](CO)n3cc(CCCSC)nn3)CC2)n1 the Potency was inconclusive: 12.6 µM [activator, partial curve].
In the case of C/C(CCN1CCc2nc(-c3ccccc3)c(-c3ccccc3)cc2C1)=N\O[C@@H](C)c1cc(-c2c(C)cc(C)cc2C)no1, the Potency is reported as inconclusive: 22.4 µM [activator, partial curve, poor fit].
For COc1ccc(-c2cc(=O)n(-c3nc4ccccc4[nH]3)[nH]2)cc1, the Potency was inconclusive: 28.2 µM [activator, single point].
In the case of Cc1n[nH]c(C)c1S(=O)(=O)N1CCCC(C(=O)Nc2ccc(Cl)cc2)C1 (stereo not drawn), the growth rescue (activation) is reported as inconclusive: -74.8% [activator].
With CCN(C(=O)Cn1cc(S(=O)(=O)Cc2ccccc2Cl)c2ccccc21)c1ccccc1 the Potency was inconclusive: 28.2 µM [activator, single point].
For CN(C)c1ccc2nc3ccc(=[N+](C)C)cc-3sc2c1, the Potency was inconclusive: 25.1 µM [activator, partial curve, poor fit].
For COCCCn1c(SCC(=O)NCc2ccccc2)nc2c(sc3ccccc32)c1=O, the “growth rescue (activation)” value was inactive: -12.5%.
For N#CCc1c(C#N)c(N)nc(N2CCN(c3ccc(F)cc3)CC2)c1C#N, the Potency was inconclusive: 10 µM [activator, partial curve].
With COc1ccc(C(=O)Nc2nc3c(s2)CCc2cc(OC)ccc2-3)cc1 the Potency was inconclusive: 35.5 µM [activator, single point].
With O=C(NCc1ccccc1)c1nccnc1CO the “growth rescue (activation)” value was inactive: 5.81%.
With Cc1ccc([C@H]2C[C@@H](O)[C@H](n3cc(COC(=O)c4ccccc4)nn3)CN2C(=O)c2cccs2)cc1 the Potency was inconclusive: 25.1 µM [activator, partial curve].
In the case of CCOc1cc(/C=N/NC(=O)COc2cccc(C)c2)ccc1OC(=O)c1cccs1, the Potency is reported as inconclusive: 22.4 µM [activator, single point].
With CCC[C@H]1[C@@H](NC(=O)c2cccnc2)CC[C@@]23CCCN2C(=O)CCC[C@@H]13 the “growth rescue (activation)” value was inactive: -4.44%.
With CCCn1nc(NC(=O)C(C)(C)C)c2cc3cc(OC)ccc3nc21 the Potency was inconclusive: 25.1 µM [activator, partial curve].
With COc1ccc2nc(NC(=O)C3CCN(S(=O)(=O)c4cccs4)CC3)sc2c1 the Potency was inconclusive: 35.5 µM [activator, partial curve, poor fit].
In the case of CC1Nc2ncnc(N3CCN(c4ccccc4)CC3)c2N(Cc2ccc(Cl)cc2)C1=O (stereo not drawn), the Potency is reported as active: 20 µM.
With CCOC(=O)[C@H]1[C@H]2COc3ccc(C)cc3[C@@H]2N2C(=O)c3cc(OC)c(OC)cc3NC(=O)[C@@]12C the Potency was inconclusive: 50.1 µM [activator, single point].
